Laboratory results published in publication PMC4336329 (PLoS ONE, 2015).
Out of some 310,000 compounds screened, about 2,200 (0.71%) showed an effect of 50% or more. The effect is printed as a negative number. This is one part of the list.

Each molecule was assayed against human ether-à-go-go-related gene (hERG) potassium channel (human, UniProt Q12809) (assay: primary screen, population patch clamp on CHO cells stably expressing hERG).
Chain of human ether-à-go-go-related gene (hERG) potassium channel (Q12809 whole entry, looked up): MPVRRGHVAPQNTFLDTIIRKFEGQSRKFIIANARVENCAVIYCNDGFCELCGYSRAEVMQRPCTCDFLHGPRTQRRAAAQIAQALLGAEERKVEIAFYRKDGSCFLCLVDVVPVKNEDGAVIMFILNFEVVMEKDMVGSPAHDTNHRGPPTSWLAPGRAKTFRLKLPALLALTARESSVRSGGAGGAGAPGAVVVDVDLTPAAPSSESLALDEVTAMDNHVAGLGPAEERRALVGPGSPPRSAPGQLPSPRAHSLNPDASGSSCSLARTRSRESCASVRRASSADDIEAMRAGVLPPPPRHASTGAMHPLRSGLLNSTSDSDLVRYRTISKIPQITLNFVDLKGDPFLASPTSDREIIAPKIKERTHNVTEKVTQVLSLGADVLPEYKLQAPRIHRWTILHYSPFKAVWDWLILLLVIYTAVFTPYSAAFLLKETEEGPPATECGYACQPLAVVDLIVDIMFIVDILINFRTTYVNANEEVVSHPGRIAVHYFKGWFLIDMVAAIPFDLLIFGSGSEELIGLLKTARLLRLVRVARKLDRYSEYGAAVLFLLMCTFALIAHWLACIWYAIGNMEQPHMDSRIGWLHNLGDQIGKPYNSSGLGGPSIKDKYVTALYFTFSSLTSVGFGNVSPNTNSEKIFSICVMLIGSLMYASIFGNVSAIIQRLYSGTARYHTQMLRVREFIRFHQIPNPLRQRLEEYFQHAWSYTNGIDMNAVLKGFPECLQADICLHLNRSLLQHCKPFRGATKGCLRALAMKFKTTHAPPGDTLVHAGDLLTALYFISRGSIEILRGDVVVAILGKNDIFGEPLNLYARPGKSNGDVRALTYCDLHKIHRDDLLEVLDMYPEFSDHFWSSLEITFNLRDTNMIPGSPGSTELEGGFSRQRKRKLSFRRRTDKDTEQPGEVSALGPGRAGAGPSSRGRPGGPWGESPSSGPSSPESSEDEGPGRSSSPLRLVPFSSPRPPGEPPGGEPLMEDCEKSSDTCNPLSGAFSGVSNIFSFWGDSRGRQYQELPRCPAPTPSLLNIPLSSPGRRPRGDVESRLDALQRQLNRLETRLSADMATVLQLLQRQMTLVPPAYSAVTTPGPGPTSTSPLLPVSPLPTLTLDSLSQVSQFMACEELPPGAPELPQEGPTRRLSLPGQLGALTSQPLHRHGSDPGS

Point of comparison: `O=c1c2ccccc2nc(-c2ccccc2)n1-n1cccc1`, “hERG current change (%, negative = inhibition) at 1uM” value 6.27%. Against it:
- COc1c(Cl)cc(Cl)cc1C(=O)Nc1ccc(C(=O)O)cc1 — higher, 19.9%
- Cc1cccc(NC(=O)Cn2cc(C(=O)C3CC3)c3ccccc32)c1C — higher, 11.2%
- O=C(O)C1CCCN1S(=O)(=O)c1ccc(F)cc1 (centres unmarked) — higher, 15.7%
- O=C(Cn1cc2c(n1)CCCC2)N1CCCc2ccccc21 — lower, 0.83%
- NC(=O)CSc1nc(N)c2c3c(sc2n1)CCCCC3 — lower, -1.65%
- CCN(CC)S(=O)(=O)c1cccc(-c2nnc(-c3ccc(C)cc3)o2)c1 — higher, 11.6%
- CCOC(=O)c1cc(C(=O)NCc2ccc(Cl)cc2Cl)nn1C — higher, 8.91%
- CCOC(=O)NC(=O)CSc1nc2ccccc2[nH]1 — higher, 13.9%
- Cc1cc2ccccc2nc1SCC(=O)N1c2ccccc2CC1C (centres unmarked) — higher, 14.5%
- CCN(CC(=O)Nc1ccc(OC)cc1)C(=O)c1cc(S(=O)(=O)N(C)C)ccc1N1CCCC1 — lower, 3.45%
- CC(=O)Nc1ccc(/C(C)=N/NC(=O)c2ccc(F)cc2)cc1 — higher, 10.7%
- CN(C)S(=O)(=O)c1ccc(N2CCCC2)c(C(=O)NCc2ccc(Cl)cc2)c1 — lower, -34.4%
- Cc1ccccc1-c1nc2cc(Cl)ccc2o1 — higher, 11%
- CSc1ccc(CNCC(O)c2ccccc2)cc1.Cl (centres unmarked) — lower, -9.69%
- CCOc1ccc(-c2cn(-c3ccc(OC)cc3)c(SC)n2)cc1 — lower, 4.91%
- N=C1C(c2ccccc2)=C(O)CN1c1cccc(S(=O)(=O)Nc2cccc(C(F)(F)F)c2)c1 — higher, 25.6%
- CC(OC(=O)CCCCCN=C1NS(=O)(=O)c2ccccc21)C(=O)Nc1cc(Cl)cc(Cl)c1 (centres unmarked) — lower, -8.01%
- N#Cc1ccccc1NC(=O)CNc1ccccc1N1CCCCC1 — lower, -7.63%
- Cc1ccc2c(c1)N(C(=O)CSc1nncn1C)C(C)(C)c1ssc(=S)c1-2 — lower, 4.16%
- COc1ccc2c(c1)C(C)CC(C)(C)N2C(=O)NC1CCCCC1 (centres unmarked) — lower, 5.4%
- COc1cc(/C=C(\C#N)C(=O)c2c(C)[nH]c3ccccc23)cc(OC)c1OC — higher, 10.8%
- O=C(Cn1cnc2scc(-c3ccccc3)c2c1=O)N1CCOCC1 — higher, 8.16%
- CC1=C(C)CC(C(=O)NCc2cccc(Cl)c2)C(C(=O)O)C1 (centres unmarked) — higher, 10.6%
- COCCNC(=O)c1nc2ccccc2s1 — higher, 10.6%
- CCCCS(=O)CC(COCc1ccccc1)OC(=O)CSc1nc(C)cc(C)n1 (centres unmarked) — lower, -7.39%
- CCOC(=O)CCCNC(=O)CN1CCC(c2nc3ccccc3s2)CC1 — lower, -20.1%
- CCC(=O)Nc1ccccc1C(=O)N1CCCC1 — higher, 8.44%
- Cc1ccc(S(=O)(=O)N2CCCCC2)cc1NC(=O)CSc1nnnn1C — lower, -3.71%
- Cc1ccc2[nH]c(=O)c(CNC(C)C)cc2c1 — higher, 12.3%
- COc1ccc(CCn2c(=O)[nH]c3cc(C(=O)N4CCN(c5ccccn5)CC4)ccc3c2=O)cc1OC — higher, 12.2%
- CCNC(=O)CN1c2cccc3cccc(c23)S1(=O)=O — lower, -0.52%
- COCCCN(C(=O)c1ccco1)c1nc(-c2cc(OC)ccc2OC)cs1 — lower, -2.17%
- C=CCOC(=O)C1=C(C)Nc2ncnn2C1c1cccs1 (centres unmarked) — higher, 8.89%
- COC(=O)[C@H](CCSC)NC(=O)Nc1ccc(C(C)C)cc1 — lower, 1.21%
- CCS(=O)(=O)c1ccc(O)c(NC(=O)CCCC(=O)O)c1 — lower, 4.84%
- COc1cc(CN2CCc3ccccc3C2)cc([N+](=O)[O-])c1O — higher, 14.1%
- O=C(CN1CCN(C(=O)C2CCCO2)CC1)Nc1c(Cl)cccc1Cl (centres unmarked) — higher, 18.8%
- O=C(NCc1ccco1)c1cc([N+](=O)[O-])ccc1Cl — lower, 5.04%
- CC(=O)Nc1c(C(=O)N2CCOCC2)cnn1-c1ccc(C)c(C)c1 — higher, 9.6%
- Cc1ccc(C)c(NC(=O)C(NCC(C)(C)N2CCOCC2)c2ccccc2)c1 (centres unmarked) — lower, -12.3%
- Cc1cc(C(=O)CSc2nc(N)cc(=O)[nH]2)c(C)n1CCc1ccc(F)cc1 — higher, 7.52%
- N#Cc1cc2c(nc1Cl)CCCC2 — higher, 11.1%
- O=C(CCC(=O)c1cccs1)NCCc1ccc(F)cc1 — higher, 10.2%
- CC12CC(NC(=O)N1c1ccc(C(=O)N3CCN(c4ccc(F)cc4)CC3)cc1)c1ccccc1O2 (centres unmarked) — higher, 12.9%
- CCS(=O)(=O)c1nc(S(=O)(=O)c2ccc(C)cc2)c(N2CCOCC2)s1 — higher, 15%
- Cc1nn2cc(-c3ccc(Cl)cc3)cnc2c1Br — higher, 16.8%
- CN(C)CCN(C(=O)c1ccc(C(=O)c2ccccc2)cc1)c1nc2cc3c(cc2s1)OCO3.Cl — higher, 11.2%
- O=C(c1ccco1)N1CCN(c2ncnc3sc4c(c23)CCC4)CC1 — lower, -20.6%
- CCCc1[nH]n(-c2ccc([N+](=O)[O-])cc2)c(=O)c1C=NCCc1c[nH]c2ccccc12 — lower, 4.25%
- Cc1sc2nc(CN3CCCCC3)nc(Nc3ccc4c(c3)OCCO4)c2c1C — lower, -89.2%
- CC(=O)Oc1ccc2c(c1)O/C(=C\c1ccncc1)C2=O — higher, 15.5%
- Cc1cc(C)cc(NC(=O)c2ccc(CSc3nnnn3C)cc2)c1 — higher, 7.56%
- O=[N+]([O-])c1ccc(-c2ccccc2)c([As](=O)(O)O)c1 — higher, 13.9%
- COc1cc(CNc2nc3c(C)cc(C)cc3s2)ccc1O.Cl — higher, 15.9%
- CC(C)(C)c1cc(=O)n2[nH]c(N)nc2n1 — higher, 12.4%
- Cc1ccc(-n2nc3c(Cl)nnc(C)c3c2C)cc1 — higher, 6.41%
- CCN(CC)CCCNc1nc2cc(OC)c(OC)cc2c2nc(-c3cccnc3)nn12 — lower, -2.35%
- Cc1ccccc1C(=O)Nc1cccc(NC(=O)Cn2cnc3c(=O)n(C)c(=O)n(C)c32)c1 — lower, -5.29%
- Clc1ccc(-c2cc(COc3ccccc3)no2)cc1Cl — higher, 7.7%
- O=C1CCC(C(=O)N2CCCCO2)CN1Cc1cccc(F)c1 (centres unmarked) — higher, 14.1%
- Cl.O=c1[nH]c2ccccc2n1CCCN1CCCCC1 — higher, 16.6%
- CC(C)n1c(N2CCN(C(=O)N3CCCCC3)CC2)nc2ccccc21 — higher, 9.25%
- CC(NS(=O)(=O)CCNC(=O)c1ccccc1)c1ccccc1 (centres unmarked) — higher, 12.3%
- Cc1cc(C)cc(NC2=C(N)C(=O)c3ccccc3C2=O)c1 — higher, 13.9%
- CC(=O)Nc1ccc(-c2nnc(SCC(=O)Nc3ccc4c(c3)oc3ccccc34)n2C)cc1 — higher, 18.8%
- COc1ccc(OC)c2c(C)c(C)[nH]c12 — lower, 2.1%
- Cc1ccccc1NC(=O)COc1coc(CN2CCN(Cc3ccccc3)CC2)cc1=O — lower, -16.2%
- CCCCN1C(=O)C2ON(c3ccccc3C)C(c3ccco3)C2C1=O (centres unmarked) — lower, 5.81%
- CCOC(=O)C1CCN(C(=O)C2CCN(c3nn4c(=O)cc(C)nc4s3)CC2)CC1 — higher, 20%
- CCCCC(=O)Nc1ccc2c3c(cccc13)C(=O)N2CC — higher, 14.4%
- S=c1[nH]nc(-c2cccc3ccccc23)n1-c1cccnc1 — higher, 14.7%
- CCOC1=NN(c2ccccc2)C(=O)/C1=C\N(C)C — higher, 6.84%
- Cc1onc(-c2c(F)cccc2Cl)c1C(=O)N1CCCCC1 — lower, 4.82%
- O=C(Nc1ccccc1)N1CCCN(Cc2c(F)cccc2Cl)CC1 — higher, 11.4%
- CCCCn1c(N)c(N(CC)C(=O)c2cc(Br)ccc2Cl)c(=O)[nH]c1=O — higher, 7.3%
- O=C(C1CCC1)N1CCc2cc(S(=O)(=O)Nc3ccc4c(c3)OCCO4)ccc21 — higher, 11%
- CN(Cc1ccc(Cl)cc1)C(=O)COC(=O)CSc1ccc([N+](=O)[O-])cc1 — lower, 5.82%
- CC(=O)Nc1ccc(S(=O)(=O)N(C)CC(=O)Nc2ccccc2N2CCOCC2)cc1 — higher, 6.76%
- C[N+]1(CCOS(=O)C23CC4CC(CC(C4)C2)C3)CCOCC1.[Cl-] (centres unmarked) — higher, 14.6%
- O=C1/C(=C/c2ccc(F)cc2)Oc2cc(OC(=O)N3CCOCC3)ccc21 — higher, 20.9%
- O=[N+]([O-])/C(C(Cl)=C(Cl)Cl)=C(\Nc1ccc(F)cc1)n1cncn1 — higher, 16.5%
- COCCNC(=S)N(Cc1cccs1)Cc1cc2cccc(C)c2[nH]c1=O — higher, 15.9%
- O=C(Nc1ccnn1C1CCN(CCCc2ccccc2)CC1)c1ccccc1Cl — lower, -87.3%
- COc1ccc(-c2csc(NS(=O)(=O)c3ccc([N+](=O)[O-])cc3)n2)cc1 — higher, 13.3%
- c1ccc2cc(C3N4CCCN34)ccc2c1 (centres unmarked) — higher, 8.13%
- Cc1nn(C)c(C)c1S(=O)(=O)N1CCC(C(=O)NCC2COc3ccccc3O2)CC1 (centres unmarked) — lower, 5.18%
- CN(C)Cc1c(C(=O)N/N=C/c2ccccc2OCc2c(F)cccc2Cl)nnn1-c1nonc1N — higher, 20.8%
- CCc1nnnn1-c1ccc([N+](=O)[O-])cc1C — lower, 3.66%
